# Laboratory results taken from PubChem BioAssay AID463173 (ICCB-Longwood Screening Facility, Harvard Medical School, 2010).
# Out of some 52,000 compounds screened, about 1,700 (3.3%) were called active. Cut-off read from the data, not from the text of the source: active = survival mostly below about 52% (no sharp cut-off); inactive = mostly above about 56%. The list shows a part of the results.
# System: Wild type
# Test: S. aureus survival, RN4220 and DeltatarO strains – OD600, teichoic acid synthesis inhibitors, primary screen (AID 463173)
# Conditions: S. aureus RN4220 wild type/DeltatarO growth, OD600, 18 h, hits give low values, screened at 18.75 µg/mL (by protocol)
row,Structure (SMILES),survival
1,COc1ccc(C2C(=O)N(C3CCC(C)CC3)CC(=O)N2C2CCCC2)cc1OC (configuration not stated),active: -4%
2,COc1ccc(CC(=O)N(Cc2nc(-c3ccc(C)cc3)no2)C(C)C)cc1,inactive: 33%
3,O=C(CSc1nc2nccnc2c(=O)n1CCc1c[nH]c2ccccc12)Nc1ccc(F)cc1,inactive: 42%
4,CN(C)c1ccc(C(CNS(=O)(=O)c2ccc(F)cc2)N2CCOCC2)cc1 (configuration not stated),inactive: 83%
5,CC(C)CNC(=O)c1cccc(NC(=O)C(C)C)c1,inactive: 94%
6,COc1ccc(-n2cc(C(=O)OCc3ccc(Cl)cc3)c3ccccc3c2=O)cc1,inactive: 143%
7,Cc1sc(-n2c(C)cc(/C=C(\C#N)C(=O)NCc3ccco3)c2C)c(C#N)c1C,inactive: 118%
8,O=C(O)CC1CCS(=O)(=O)C1 (configuration not stated),inactive: 103%
9,COc1ccc(NC(=O)C2CCN(S(=O)(=O)c3ccc4c(c3)CCCC(=O)N4)CC2)c(OC)c1,inactive: 111%
10,CCOc1ccc(Nc2sc(C(=O)c3cccc(OC)c3)c(N)c2S(=O)(=O)c2ccccc2)cc1,inactive: 77%
11,CCC(C(=O)Nc1ccc(C(=O)OC)cc1)n1nc(-c2ccc(C)c(C)c2)ccc1=O (configuration not stated),inactive: 102%
12,Cc1c(C(=O)OC2CCCCCC2)[nH]c2c1C(=O)CC(c1ccc(N(C)C)cc1)C2 (configuration not stated),inactive: 123%
13,COc1cc(OC)cc(C(=O)Nc2cc(-c3nc4cccnc4s3)ccc2C)c1,inactive: 91%
14,CCOc1ccc(CNC(=O)Cn2ccc3cc(S(=O)(=O)N4CCCCC4)ccc32)cc1,inactive: 80%
15,Cc1ccc(NC(=O)CSc2ccc(-c3ccccn3)nn2)cc1F,inactive: 85%
16,COc1ccc(S(=O)(=O)N(CC(=O)NCCSCc2ccccc2)c2ccc(C)cc2)cc1,inactive: 68%
17,Cn1c(=O)c(=O)n(C)c2cc(S(=O)(=O)N3CCCC3C(=O)Nc3ccc(F)cc3)ccc21 (configuration not stated),inactive: 82%
18,O=C(c1ccccc1Br)N1CCC(c2nc3ccccc3o2)CC1,inactive: 77%
19,Cc1ccc(Cn2c(=O)n(-c3cc(C)cc(C)c3)c(=O)c3oc4ccccc4c32)cc1,inactive: 77%
20,COc1ccc(S(=O)(=O)N(Cc2nc(-c3ccc(Cl)cc3)no2)C2CCCCC2)cc1,inactive: 111%
21,Cc1ccc(S(=O)(=O)NCc2ccc(C(=O)NCCc3cccc(C)c3)cc2)cc1,inactive: 91%
22,N#Cc1c(C(F)(F)F)cc(-c2cccs2)nc1SCC(=O)Nc1cccc(C(F)(F)F)c1,inactive: 67%

row,Structure (SMILES),survival
1,Cc1oc(C)c2c(=O)cc(-c3ccc4c(c3)OCO4)cc(OC(=O)c3cccc(Cl)c3)c12,inactive: 115%
2,CCC1(c2csc(Nc3ccccc3C)n2)CCC(=O)O1 (configuration not stated),inactive: 112%
3,O=S(=O)(c1ccc(-n2cnnn2)cc1)N1CCN(c2cccc(C(F)(F)F)c2)CC1,inactive: 98%
4,COc1cc(Cl)c(C)cc1NC(=O)c1sc2nc(C)cc(C)c2c1N,inactive: 85%
5,Cc1ccsc1CN(C(=O)COc1cccc(C)c1C)C1CCS(=O)(=O)C1 (configuration not stated),inactive: 90%
6,COc1cc(C(=O)N(Cc2cccnc2)c2nc3cc(C)c(C)cc3s2)cc(OC)c1OC,inactive: 22%
7,CCOC(=O)COc1ccc(F)cc1C(=O)c1ccn2nc(-c3ccc(C)cc3)cc2n1,inactive: 76%
8,CN1C(=O)C(C)(C)c2cc(S(=O)(=O)N3CCCC3C(=O)Nc3ccc(F)cc3)ccc21 (configuration not stated),inactive: 81%
9,COc1ccccc1NC(=O)C(Cc1ccccc1)NS(=O)(=O)c1cccc2nsnc12 (configuration not stated),inactive: 78%
10,Cc1cc2cc3c(cc2nc1SCC(=O)OC(C)C)OCO3,inactive: 106%
11,COc1ccc(OC)c(NC(=O)CSc2nc3ccccc3c(=O)n2CCC(=O)NC2CCCCC2)c1,inactive: 78%
12,O=C(Cn1c(SCC(=O)Nc2ccc(F)cc2)nc2ccccc21)NCc1ccccc1Cl,inactive: 75%
13,CCCCOC(=O)c1cccc(NC(=O)/C=C/c2ccccc2Cl)c1,active: 7%
14,COC(=O)c1ccc(Cl)cc1NC(=O)N(Cc1ccc(OC)cc1)C1CCN(C(C)=O)CC1,active: -6%
15,CC(=O)Nc1n[nH]c(-c2ccc(C)cc2)n1,inactive: 104%
16,O=C(CCC1N=C2c3ccccc3N=C(SCC(=O)Nc3ccc(F)cc3)N2C1=O)NCc1cccs1 (configuration not stated),inactive: 68%
17,Cc1cccc(NC(=O)c2ccc(CNS(=O)(=O)c3ccc4c(c3)C(C)(C)C(=O)N4C)cc2)c1,inactive: 91%
18,Cc1ccccc1C(=O)N(Cc1ccc(N(C)C)cc1)CC1CCCO1 (configuration not stated),inactive: 85%
19,Cc1ccc(N2CCN(C(=O)NCc3noc4ccc(C)cc34)CC2)c(C)c1,inactive: 53%
20,O=C(NCCOCCn1c(=O)oc2ccccc21)Nc1cccc(Cl)c1,inactive: 79%
21,COc1ccccc1NC(=O)CSC1=Nc2ccccc2C2=NC(CC(=O)NCc3ccc4c(c3)OCO4)C(=O)N12 (configuration not stated),inactive: 120%
22,COC(=O)c1ccc(C(=O)OC)c(NC(C)=O)c1,inactive: 103%

row,Structure (SMILES),survival
1,CCOC(=O)c1noc2ncnc(NCc3ccccc3OC)c12,inactive: 72%
2,COc1ccccc1N=C1SC(C(=O)Nc2ccccc2OC)CC(=O)N1C (configuration not stated),inactive: 73%
3,Cc1ccc(CNC(=O)c2sc3nc4n(c(=O)c3c2C)CCCCC4)cc1,inactive: 79%
4,COC(=O)c1ccccc1NC(=O)C1CCCN(c2ncnc3onc(C)c23)C1 (configuration not stated),inactive: 77%
5,CC(C)c1ccc(NC(=O)c2ccc3c(O)c(S(=O)(=O)c4ccccc4)c(=O)[nH]c3c2)cc1,inactive: 83%
6,CNC(=O)c1c(-c2ccccc2)oc2ccc(OC)cc12,inactive: 102%
7,Cc1ccc(-n2nc(C(=O)N(C)Cc3ccccc3)c3c4ccccc4n(C)c3c2=O)cc1,inactive: 116%
8,NC(=O)C1CCN(C(=O)COc2ccc(Cl)cc2Cl)CC1,inactive: 104%
9,Cc1ccc(C(=O)N(c2ccc(C)cc2)S(=O)(=O)c2ccc(Cl)cc2)cc1,inactive: 73%
10,O=c1c2ccccc2n2c(-c3ccccc3F)nnc2n1CCc1ccccc1,inactive: 78%
11,COc1cc(OC)c(N(C)C(=O)c2cc3c(=O)oc4ccccc4c3s2)cc1Cl,inactive: 66%
12,Cc1ccc(-n2c(=O)c3c(c4cc(C)ccc4n3C)n(Cc3ccc(F)cc3)c2=O)cc1,inactive: 136%
13,CCOC(=O)C1=NN(C(=O)COc2ccccc2)C(O)(c2ccc(Br)cc2)C1 (configuration not stated),inactive: 113%
14,Cc1ccc(NC(=O)C(Cc2ccccc2)N2Cc3ccccc3C2=O)cc1Cl (configuration not stated),inactive: 98%
15,CCN(C(=O)c1c(C)oc2ncn(CC(C)C)c(=O)c12)c1cccc(Cl)c1,inactive: 63%
16,COC(=O)c1cn(CC(=O)Nc2ccc(OC)cc2)c2ccccc12,inactive: 92%
17,CCCCNC(=O)CCn1c(=O)c2cccn2c2cccnc21,inactive: 108%
18,Cc1oc(-c2ccc(C(=O)NCc3ccccc3Cl)cc2)nc1CN1CCc2ccccc21,inactive: 67%
19,CCCn1c(CCC(=O)Nc2ccc(C)c(Cl)c2)nc2cccnc21,inactive: 84%
20,COc1ccc(C)cc1NC(=O)c1cc(S(=O)(=O)N2CCc3ccccc3C2)ccc1F,inactive: 75%
21,CCC1=C(c2ccc(C)cc2)S(=O)(=O)N=C1N1CCC(C(=O)NCCc2ccc(Cl)cc2)CC1,inactive: 77%
22,O=C(CC1N=C2c3ccccc3N=C(SCc3cccc(Cl)c3)N2C1=O)NCCc1ccccc1 (configuration not stated),inactive: 126%

row,Structure (SMILES),survival
1,Cc1ccc(S(=O)(=O)C(CNC(=O)C(=O)NCCc2ccc(Cl)cc2)c2cccs2)cc1 (configuration not stated),inactive: 71%
2,O=C(Cn1c(=O)nc(-c2ccccc2)c2cc(Cl)ccc21)NCc1ccc(Cl)cc1,inactive: 45%
3,CCCS(=O)(=O)N1CC(=O)N(c2ccc(C)cc2C)C(C)(C(=O)NC2CCCCCC2)C1 (configuration not stated),inactive: 76%
4,O=C(Nc1cnn(Cc2ccc(Cl)cc2Cl)c1)c1noc2c1CCc1ccccc1-2,inactive: 81%
5,COc1ccc(C(CC(=O)Nc2cc(OC)c(OC)c(OC)c2)N2Cc3ccccc3C2=O)cc1 (configuration not stated),inactive: 65%
6,COc1ccc(CCNS(=O)(=O)c2cc(-c3onc(C)c3C)ccc2OC)cc1OC,active: -3%
7,CCOc1ccc(CCNC(=O)c2ccc3c(c2)N(Cc2ccccc2F)C(=O)c2ccccc2S3=O)cc1OCC (configuration not stated),inactive: 84%
8,O=C(CCS(=O)(=O)c1cc2c3c(c1)CCN3C(=O)CC2)Nc1cccc(Br)c1,inactive: 92%
9,O=C(COCc1cc(-c2ccc3c(c2)OCO3)on1)Nc1cc(C(F)(F)F)ccc1Cl,inactive: 130%
10,Cc1cc2c(cc1S(=O)(=O)CCC(=O)N1CCCCC1C)OCC(=O)N2 (configuration not stated),inactive: 85%
11,CCN1CCN(CCCNC(=O)Cn2c(-c3cccs3)cc3cc(F)ccc32)CC1,inactive: 126%
12,Cc1ccc(C)c(Nc2nn3c(=O)c4cc5c(cc4nc3s2)OCO5)c1,inactive: 61%
13,CCc1ccc(NC(=O)CSc2nc(=O)n(Cc3ccncc3)c3c2CCC3)cc1,inactive: 80%
14,O=C(Oc1ccc(Cl)cc1)c1ccc2snnc2c1,inactive: 105%
15,O=C(O)c1cnc2ccccn2c1=O,inactive: 109%
16,O=c1c(S(=O)(=O)c2ccccc2)cn(Cc2cccc(F)c2)c2cc(N3CCCC3)c(F)cc12,inactive: 126%
17,COc1ccccc1N1CCN(S(=O)(=O)CCNC(=O)Cc2ccc(Cl)cc2)CC1,inactive: 82%
18,CCCCN(C)CCNC(=O)CN1C(=O)CSc2ccc(S(=O)(=O)N3CCCCC3)cc21,inactive: 132%
19,CCOC(=O)N1CCc2c(sc(NCc3cccs3)c2C(=O)Nc2ccc(OC)cc2OC)C1,inactive: 72%
20,COc1ccc(-c2nnn(CC(=O)Nc3sc4c(c3C#N)CCCC4)n2)cc1,inactive: 109%
21,Cn1c(=O)c2c(nc(N3CCOCC3)n2Cc2ccccc2Cl)n(C)c1=O,inactive: 68%
